{
  "source": "PubChem BioAssay AID485313",
  "about": "(National Center for Advancing Translational Sciences (NCATS), 2010)",
  "note": "Screen size: about 320,000 compounds; about 7,600 (2.4%) were called active. Inconclusive means that the source gave no clear call. Such entries were picked first, then a sample of the others. Calls follow the shape of the dose curve; as a rule, active = well fitted activation curve with a large enough effect; inconclusive = small, poorly fitted or top-dose-only effect; inactive = no such curve, though single readings can be large or run the other way. No potency is given beside an inconclusive call; the fits are too rough. Potency is read from the fitted curve at half-maximal effect; tags tell the direction and shape of the fitted curve.",
  "data": [
    {"assay": "qHTS Assay for NPC1 Promoter Activators; also: nearly all actives have a fitted effect of over 60% in size;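 as to activation: reporter is driven by a mutant NPC1 promoter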", "details": "Huh7 NPC1 promoter luciferase reporter, 24 h; series mostly up to 9.22 µM", "procedure,_shortened": "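Readout is luciferase luminescence, reflecting NPC1 promoter activation in stably transfected Huh7 cells after 24 h compound exposure at 37 °C in reduced-serum medium with 10% FBS.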", "values": [
      {"smiles": "CCN(CC)c1ccc2cc(-c3nc4ccccc4[nH]3)c(=O)oc2c1", "Potency": "active: 0.282 µM"},
      {"smiles": "Cc1cc(C)cc(NC(=O)N2CCc3ccccc3C2)c1", "Potency": "inconclusive [activator, partial curve]"},
      {"smiles": "Cc1ccccc1CSc1nnc(-c2ccccn2)n1N", "Potency": "inconclusive [activator, single point]"},
      {"smiles": "CSc1nncn1/N=C/c1ccc2c(c1)OCO2", "Potency": "inactive"},
      {"smiles": "CC(=O)c1ccc(NC(=O)Nc2ccc([N+](=O)[O-])cc2)cc1", "Potency": "inconclusive [activator, single point]"},
      {"smiles": "CC(C)(C)C(=O)Nc1ccc(-c2csnn2)cc1", "Potency": "inconclusive [activator, partial curve]"},
      {"smiles": "O=C(N/N=C/c1ccccc1[N+](=O)[O-])c1ccc2nc[nH]c2c1", "Potency": "inconclusive [activator, partial curve]"},
      {"smiles": "CCc1cccc(NC(=O)c2ccc3c(=O)n4c(nc3c2)CCCCC4)c1", "Potency": "inconclusive [activator, partial curve]"},
      {"smiles": "Cc1cc(Cl)cc2c(N=Nc3ccccc3C(=O)O)c(O)[nH]c12", "Potency": "inconclusive [activator, partial curve]"},
      {"smiles": "O=C(NNC(=O)c1ccccc1F)c1cccc(-n2cccc2)c1", "Potency": "inconclusive [activator, single point]"},
      {"smiles": "Cc1cccnc1NC(=S)NC(=O)c1cncc(Br)c1", "Potency": "inconclusive [activator, single point]"},
      {"smiles": "Cc1ccc(/C=c2/sc3n(c2=O)CCCN=3)o1", "Potency": "inconclusive [activator, single point]"},
      {"smiles": "Cc1cc(=O)oc2cc(NC(=O)c3cc4ccccc4o3)ccc12", "Potency": "inconclusive [activator, single point]"},
      {"smiles": "Cc1ccc2nc(-c3cc(-c4ccccc4)no3)cn2c1", "Potency": "active: 0.794 µM"},
      {"smiles": "Cc1ccc(Nc2nc(CSc3nnc(-c4ccc(F)cc4)n3C)cs2)cc1", "Potency": "inconclusive [activator, single point]"},
      {"smiles": "O=C(N/C=C/c1ccccc1)c1ccccc1", "Potency": "active: 1.12 µM"},
      {"smiles": "CCc1ccc2c(COC(=O)c3n[nH]c4ccccc34)cc(=O)oc2c1", "Potency": "inconclusive [activator, single point]"},
      {"smiles": "CCOc1ccc(/C=N/NC(=O)c2[nH]ncc2Br)c(O)c1", "Potency": "inconclusive [activator, partial curve]"},
      {"smiles": "COc1cc(/C=N/Nc2ccc(Cl)c(C(=O)O)c2)ccc1OC(=O)c1ccccc1F", "Potency": "inconclusive [activator, partial curve]"},
      {"smiles": "O=S(=O)(Nc1ncccc1O)c1ccc(Cl)cc1", "Potency": "inactive"},
      {"smiles": "O=C(O)C1CSC(c2ccccc2)N1C(=O)c1ccco1", "note": "(stereo not given)", "Potency": "inactive"},
      {"smiles": "Cc1ccc(-c2nc(C#N)c(NCCCn3ccnc3)o2)cc1", "Potency": "inconclusive [activator, partial curve]"},
      {"smiles": "COc1cc(C(=O)NC(=S)Nc2ccc3[nH]c(=O)[nH]c3c2)cc(OC)c1OC", "Potency": "inactive"},
      {"smiles": "Clc1ccc(SCc2cn3ccccc3n2)cc1", "Potency": "inconclusive [activator, partial curve]"},
      {"smiles": "Cc1ccc(OCc2ccc(-c3ccccc3)cc2)c([N+](=O)[O-])n1", "Potency": "inactive"},
      {"smiles": "COC(=O)c1ccc(N2CCN(c3ccccc3)CC2)nc1", "Potency": "inconclusive [activator, partial curve]"},
      {"smiles": "Cc1onc(-c2ccccc2)c1C(=O)N=C(N)c1ccc(C(F)(F)F)cc1", "Potency": "inconclusive [activator, single point]"},
      {"smiles": "O=C1C(=O)N(CCN2CCOCC2)C(c2ccccn2)/C1=C(/O)c1ccc(F)cc1", "note": "(stereo not given)", "Potency": "inactive"},
      {"smiles": "CC(C)Cn1c(C23CC4CC(CC(C4)C2)C3)n[nH]c1=S", "Potency": "inactive"},
      {"smiles": "O=c1oc(-c2cccs2)nc2sc3c(c12)CCCC3", "Potency": "inactive"},
      {"smiles": "C=CCn1c(N/N=C/c2ccc(O)cc2)nc2ccccc2c1=O", "Potency": "inactive"},
      {"smiles": "CCOc1ccc(NC(=O)CN(C)C(=O)c2cc(S(=O)(=O)N(C)C)ccc2N2CCCC2)cc1OCC", "Potency": "inactive"},
      {"smiles": "COC(=O)c1cccc(CSc2nnc(C)s2)c1", "Potency": "inconclusive [activator, single point]"},
      {"smiles": "CC(C)(C)OC(=O)NCCCC[C@H](NC(=O)c1nc[nH]c1C(=O)NC1CCN(C(=O)OC(C)(C)C)CC1)C(=O)OC(C)(C)C", "Potency": "inactive"},
      {"smiles": "O=C(N/N=C/c1cccc(F)c1)c1ccc(Cl)cc1", "Potency": "active: 3.98 µM"},
      {"smiles": "Cc1ccc(C)c(N=Nc2nc3ccccc3n2C)c1", "Potency": "active: 3.16 µM"},
      {"smiles": "Cn1c(SCC(=O)Nc2ccccc2)nc2ccccc2c1=O", "Potency": "inactive"},
      {"smiles": "O=C(Nc1cccnc1)c1cc(-c2ccc(Br)cc2)nc2ccccc12", "Potency": "inactive"},
      {"smiles": "CC1(C)CC(=O)c2sc(NC(=O)c3ccc4ncsc4c3)nc2C1", "Potency": "inconclusive [activator, partial curve]"},
      {"smiles": "c1ccc(COc2ccc(CN3CCN(c4ccccn4)CC3)cc2)cc1", "Potency": "inconclusive [activator, partial curve]"},
      {"smiles": "CCc1ccc(/C=C2/SC(=S)N(CCC(=O)Nc3cccc(C(=O)O)c3)C2=O)cc1", "Potency": "inconclusive [activator, partial curve, poor fit]"},
      {"smiles": "O=C(CC(SCCO)c1ccc2c(c1)OCO2)c1cccs1", "note": "(stereo not given)", "Potency": "inconclusive [activator, partial curve]"},
      {"smiles": "CCOC(=O)C1CCN(C(=O)c2cc3cc4cc(OC)ccc4nc3o2)CC1", "Potency": "inconclusive [activator, single point]"},
      {"smiles": "Cc1ccc(O)c(-c2cc(C(F)(F)F)[nH]n2)c1", "Potency": "inactive"},
      {"smiles": "Cc1cccc(OCc2nc3ccccc3n2C)c1", "Potency": "inconclusive [activator, partial curve]"},
      {"smiles": "Cc1nc2ccccn2c1C(=O)Nc1ccc2c(c1)OCCO2", "Potency": "inconclusive [activator, partial curve]"},
      {"smiles": "COc1cc(C2CC(=O)N(CC(=O)NCC3CCCO3)c3ccccc3S2)cc(OC)c1OC", "note": "(stereo not given)", "Potency": "inactive"},
      {"smiles": "N/C(=N\\OC(=O)c1cccc2ccccc12)c1ccccn1", "Potency": "inconclusive [activator, single point]"},
      {"smiles": "COc1ccccc1C(=O)NC(=S)Nc1cccnc1Cl", "Potency": "active: 1.12 µM"},
      {"smiles": "CC1Cc2ccccc2N1C(=O)COC(=O)/C=C/c1ccc(F)cc1", "note": "(stereo not given)", "Potency": "inactive"},
      {"smiles": "O=C(Nc1ccc(OC(F)(F)F)cc1)c1cnc2n(c1=O)CCS2", "Potency": "inconclusive [activator, partial curve]"},
      {"smiles": "CCOC(=O)N1CCN(C(=O)C2CC(=O)N(c3ccccc3)C2)CC1", "note": "(stereo not given)", "Potency": "inconclusive [activator, single point]"},
      {"smiles": "CCC(N=c1cc(-c2ccc(OC)cc2)oc2ccc(C)cc12)C(=O)O", "note": "(stereo not given)", "Potency": "inconclusive [activator, single point]"},
      {"smiles": "O=C(Nc1ccc(S(=O)(=O)N2CCCCCC2)cc1)c1[nH]ncc1[N+](=O)[O-]", "Potency": "inconclusive [activator, single point]"},
      {"smiles": "Cc1nn(-c2nc3ccccc3s2)c(N)c1-c1ccccc1", "Potency": "active: 2.51 µM"},
      {"smiles": "Cc1c(C(=O)O)cccc1-c1ccc(/C=C2/NC(=O)N(c3ccccc3)C2=O)o1", "Potency": "inconclusive [activator, partial curve]"},
      {"smiles": "Cc1ccc(C(=O)Nc2cccc(C(=O)N3CCN(C)CC3)c2)cc1", "Potency": "active: 3.16 µM"},
      {"smiles": "O=C1CN(C(=O)COc2ccc([N+](=O)[O-])cc2Cl)c2ccccc2N1", "Potency": "inactive"},
      {"smiles": "CN(C)c1ccc(/C=N/NC(=O)c2ccc3c(c2)OCCO3)cc1", "Potency": "inconclusive [activator, single point]"},
      {"smiles": "CC1=CN2C(=N)/C(=C/c3cn(CCCOc4ccccc4C)c4ccccc34)C(=O)N=C2S1", "Potency": "inconclusive [activator, partial curve]"},
      {"smiles": "O=C(Nc1ccccc1C(=O)Nc1ccncc1)c1cccc([N+](=O)[O-])c1", "Potency": "active: 2.82 µM"},
      {"smiles": "CN(C)c1ccc(C(=O)NCC2CCCO2)cc1", "note": "(stereo not given)", "Potency": "inconclusive [activator, partial curve]"},
      {"smiles": "CCC1CCCCN1C(=O)c1ccc2nc(Cc3ccc(OC)cc3)oc2c1", "note": "(stereo not given)", "Potency": "inconclusive [activator, partial curve]"},
      {"smiles": "c1ccc(CSc2nnc(-c3cccnc3)o2)cc1", "Potency": "inconclusive [activator, partial curve]"},
      {"smiles": "COc1ccc(-c2cc(C(=O)NCCCN3CCOCC3)c3ccccc3n2)cc1OC", "Potency": "inactive"},
      {"smiles": "Cn1c(=NC(=O)CCS(=O)(=O)c2ccccc2)sc2cc(F)ccc21", "Potency": "inconclusive [activator, partial curve]"},
      {"smiles": "O=Cc1cn(-c2ccccc2)nc1-c1ccncc1", "Potency": "inactive"},
      {"smiles": "Cc1cccc(/C=C\\c2nc3ccccc3c(=O)[nH]2)c1", "Potency": "inconclusive [activator, single point]"},
      {"smiles": "O=C(CSc1nccn1Cc1ccco1)Nc1ccccc1F", "Potency": "inconclusive [activator, single point]"},
      {"smiles": "CCOC(=O)c1ccc(NC(=O)Nc2ncccc2C)cc1", "Potency": "inconclusive [activator, partial curve]"},
      {"smiles": "CCN(CC)C(=O)CSc1nnc2sc3ccccc3n12", "Potency": "inactive"},
      {"smiles": "Cc1ccc(CSc2ccc(-c3ccco3)nn2)cc1", "Potency": "active: 3.55 µM"},
      {"smiles": "C/C(=N\\Nc1ccc([N+](=O)[O-])cc1)c1cccc(N)c1", "Potency": "inconclusive [activator, single point]"},
      {"smiles": "Cc1ccc(-c2csc(-c3c[nH]c4ccccc34)n2)c(C)c1", "Potency": "inconclusive [activator, partial curve]"},
      {"smiles": "Cc1cc(C)c2c(N)c(-c3nc4ccccc4[nH]3)sc2n1", "Potency": "inconclusive [activator, single point]"}
    ]}
  ]
}
